Test results from ChEMBL document CHEMBL4888484, “Replenishing the malaria drug discovery pipeline: Screening and hit evaluation of the MMV Hit Generation Library 1 (HGL1) against asexual blood stage Plasmodium falciparum ,using a nano luciferase reporter read-out” (2022).
The whole screen tested about 4,800 compounds, of which about 410 (8.5%) showed an effect of 50% or more. The list shows a part of the results.

System: Plasmodium falciparum
Test: Confirmatory screen in NF54 pLDH assay, in single point, at 2uM, 72h
Type: functional, Erythrocyte
Details: timepoint 72 hour

Row | Compound | % Inhibition [%]
1 | Cc1ccc2nc(-c3cccc(NC(=O)c4ccc5c(c4)OCO5)c3)oc2c1 | -7
2 | Cc1cc(-c2ccccc2)nc(O)c1S(C)(=O)=O | 6
3 | COc1cc2c(cc1OC)C(Nc1cc(C)ccc1C)=NC(C)(C)C2 | -3
4 | CC1=NN(c2nc(C)cc(O)n2)C(=O)C1 | -6
5 | Cc1nc(CNC(=O)Nc2ccc(Br)c(C)n2)no1 | 11
6 | CN1CCN(S(=O)(=O)c2ccc(F)c(F)c2)C[C@H]1c1ccccc1 | 5
7 | CCCCN1C(=O)[C@H]2[C@H]([C@H](O)c3ccc(Cl)cc3)N[C@@]3(C(=O)Nc4ccccc43)[C@H]2C1=O | 1
8 | COc1ccc(CNc2ncc(-c3ccc(C)c(C)c3)n2C)cc1OCc1ccccc1 | -9
9 | CC1C(Cc2ccccc2)CCN1C(=O)c1cnc(C(F)(F)F)nc1 (stereo not drawn) | 14
10 | Cc1ccc(NC(=O)CN2CCC3(CC2)NC(c2ccc(OC(F)(F)F)cc2)=NO3)c(C)c1 | 1
11 | OC(CC1COCCN1)c1ccccc1 (stereo not drawn) | 11
12 | CCOC(=O)c1cc(-c2ccccc2)n(NC(=O)COc2ccc(Cl)cc2)c1C | -9
13 | O=C(CNc1ccccc1N1CCCCC1)NC1CCCCCC1 | -7
14 | Cc1ccc(-c2nn3c([C@H]4CCCN(C)C4)nnc3s2)cc1C | -8
15 | O=C(CN1CCC2(CC1)NC(=O)N(Cc1ccc(Cl)cc1)C2=O)Nc1ccc(F)cc1F | 8
16 | O=C(Nc1nc2ccccc2[nH]1)C1CCN(c2cc3c(nn2)CCC3)CC1 | 9
17 | c1ccc(-c2cn(-c3ccccc3)c3ncnc(N4CCCC4)c23)cc1 | 13
18 | Cc1ccccc1S(=O)(=O)N1CCN(c2c(C)n(-c3ccccc3)c(=O)n(C)c2=O)CC1 | 9
19 | CCN(C(=O)CCn1cnc2ccccc2c1=O)c1ccc2[nH]ccc2c1 | 5
20 | CC1CC(N)CCN1C(=O)c1cccc(-c2noc(C3CC3)n2)c1 (stereo not drawn) | -5
21 | O=C(c1cnc2ccc(F)cc2c1N1CCC(Cc2ccccc2)CC1)N1CCCC1 | 8
22 | O=C(NC1CCCC1)N1CCN(S(=O)(=O)c2cccc(F)c2)CC1 | 2
23 | Cc1cc(C)n(Cc2csc(C3CCCCC3)n2)n1 | -9
24 | C[C@@H](Cn1cc(Br)cn1)c1nnc(Nc2ccn(Cc3c(F)cccc3Cl)n2)s1 | 14
25 | COc1cc(CNCCN2CCOCC2)ccc1OCc1cccc(C)c1 | 7
26 | C1CN(c2nc3nonc3nc2N2CCOCC2)CCO1 | -4

Row | Compound | % Inhibition [%]
27 | CNC(=O)Cc1c(Cl)cccc1Cl | 4
28 | COc1ccccc1CNC(=O)c1cnn2c(-c3ccc(Cl)cc3)ccnc12 | 11
29 | CC(=O)N(c1ccccc1)[C@H]1C[C@@H](C)N(C(=O)C(F)(F)F)c2ccccc21 | 12
30 | CN([C@H]1CCc2ccccc21)S(=O)(=O)c1ccc2c(c1)CCC2 | 7
31 | CN(C(=O)c1ccc(OCC(F)(F)F)nc1)C1(C#N)CCC1 | 5
32 | COc1ccccc1N1CCN(c2nc(Nc3ccc(F)cc3)c3nc[nH]c3n2)CC1 | -14
33 | Cc1cnccc1NCCNC1CCN(c2ccc(Cl)cc2)CC1 | 96
34 | O=C(Nc1ccc2c(c1)OCO2)c1c(-c2ccc(Cl)cc2)nc2n1CCS2(=O)=O | 6
35 | O=C(Cc1ccccc1)Nc1c2c(nc3c1CCC3)CCCC2 | 8
36 | Cc1cc(-n2nnc3ccccc32)nc(C)n1 | 3
37 | CN(Cc1ccn(C)n1)C(=O)c1cc(S(=O)(=O)N(C)C)c(Cl)cc1Cl | 8
38 | Cc1c(S(=O)(=O)N2CCC[C@H](C(=O)NC3CC3)C2)cnn1C | 5
39 | Cc1cc(CNC(=O)Nc2cnn(-c3ncccc3C#N)c2)n(C)n1 | 7
40 | Oc1nc(N2CCOC3(CCCC3)C2)ncc1F | 53
41 | CC(C)[C@H](NC(=O)NCCc1ncnn1C)c1ccccc1Cl | 8
42 | COc1c(Cl)cc(Cl)cc1CNC(C)C | 10
43 | CNc1nc(NCc2ccccc2)nc2ccccc12 | 91
44 | COC(=O)[C@@H]1C[C@H](O)CCN1C(=O)OC(C)(C)C | 7
45 | CN(Cc1ccncc1)Cc1ccc2c(c1)CCO2 | -3
46 | O=C(CCc1ccc(F)cc1)Nc1nccc(-c2ccco2)n1 | 6
47 | COC(=O)c1ncn(CNC2(c3ccc(Cl)cc3)CCCC2)n1 | 9
48 | Cc1ccc(S(=O)(=O)N(CC(=O)NC2CCN(C)CC2)c2cccc(Cl)c2)cc1 | 2
49 | COc1ccc(O)c([C@H]2Nc3ccccc3-n3c(-c4ccc(C)cc4)c4c(=O)n(C)c(=O)n(C)c4c32)c1 | -2
50 | O=C(Cc1cnn(-c2ccccc2)c1)Nc1ccc2[nH]c(=O)[nH]c2c1 | 10
51 | Cc1nn(C)c2c(N3CCOCC3)nc(C3CC3)nc12 | 0
52 | Cc1cc(NC(=O)Cn2c(=O)n(CCc3ccccc3)c(=O)c3ccccc32)no1 | 13

Row | Compound | % Inhibition [%]
53 | Cc1ccc(-c2ccc(=O)n(CCC(=O)N3CCN(C4CCCCC4)CC3)n2)cc1 | 0
54 | Cc1ccc(C(=O)Nc2noc(-c3ccc(C)cc3)c2-c2ccccc2Cl)cc1 | -15
55 | COc1cc(-c2nc(-c3ccc(F)cc3)c(-c3ccc(F)cc3)[nH]2)cc2c1OCO2 | 5
56 | Cc1ccc(S(=O)(=O)c2c(NS(=O)(=O)c3ccccc3)n(CCc3ccccc3)c3nc4ccccc4nc23)cc1 | 102
57 | COc1ccc(S(=O)(=O)n2[nH]c(=O)c(CCO)c2C)cc1 | 15
58 | COc1ccc(CCNC(=O)c2cc3n(n2)CCN(Cc2cccc(F)c2)C3=O)cc1OC | 17
59 | C#CCOc1ccc2ccccc2c1[C@@H]1NC(=O)c2cccnc2N1 | 6
60 | CN(C)/C=C/c1c(C#N)c(=O)ncn1Cc1ccccc1 | 8
61 | O=C(C[C@H]1CCN(S(=O)(=O)c2ccc(F)c(F)c2)C1)NCc1ccccc1 | -18
62 | O=C(C[C@H]1CCN(C(=O)c2ccoc2)C1)NC1CC1 | -1
63 | O=C1c2ccccc2C(=O)N1Cc1cnc(N2CCCCC2)s1 | -1
64 | Cc1cc[n+]2c(-c3ccccc3)cc(-c3ccccc3)nc2c1 | 50
65 | CCOC[C@@H](O)CN(Cc1c(-c2ccccc2)noc1N1CCC(C)CC1)CC1CC1 | -9
66 | O=C(N[C@H](c1ccccc1)C1CCC1)N1CCOC2(CCC2)C1 | 4
67 | Cc1nnc(NC(=O)C(C)(C)S(=O)(=O)C2CC2)n1C1CC1 | 0
68 | C=CCN=C(NCc1nccn1C)NC1CCC(C)CC1 (stereo not drawn) | -4
69 | O=C(Nc1c(S(=O)(=O)c2ccccc2)c2nc3ccccc3nc2n1CCc1ccccc1)c1ccc(Cl)cc1 | 96
70 | O=C(O)[C@@H]1CCCN1c1ncc(C(F)(F)F)cc1Cl | 1
71 | CCOc1cc(=O)c(C(=O)N2CCC(C)CC2)nn1-c1cc(OC)cc(OC)c1 | 5
72 | Cc1ccc(C)c(-c2nc(Cn3c(=O)c4c(C)cc(C)nc4n(C)c3=O)c(C)o2)c1 | 3
73 | Cc1cccc(NC(=O)NCCn2nnc3cc(S(=O)(=O)N4CCCC4)ccc32)c1C | 12
74 | COc1ccc(CN2CCC(C(=O)NCCCN3CCOCC3)CC2)c(OC)c1 | 9
75 | COc1cccc(CNC(=O)c2sc(Nc3ccc(C)cc3C)nc2C)c1 | -18
76 | Cc1nc(-c2ccccc2)cc2nn(CC(=O)N3CCOCC3)c(=O)n12 | -17
77 | CC(C)Nc1nc2nonc2n2cnnc12 | 90
78 | CN(C)c1cc(C(=O)N2CCOC3CCCCC32)ccn1 (stereo not drawn) | 3

Row | Compound | % Inhibition [%]
79 | Cc1ccc(NC(=O)COC(=O)c2ccc3c(c2)N=S=N3)cc1 | -24
80 | O=C(Nc1ccc(Cl)cc1)n1c(=S)oc2cc(Br)ccc21 | 2
81 | Cc1nccn1-c1ncc(NC(=O)Nc2ccccc2)cn1 | 6
82 | O=C(Nc1cccc2cccnc12)c1ccccn1 | 87
83 | CCCCC1NC(=O)N([C@@H]2CCC(=O)N[C@H]2c2ccccc2)C1=O (stereo partly drawn) | 3
84 | CC(=O)c1ccc(S(=O)(=O)N2CCC(C)(C(=O)NCc3ccc4c(c3)OCO4)CC2)cc1 | 8
85 | O=S(=O)(c1ccc(F)c(Cl)c1)N1CC[C@H](Oc2ccncc2Cl)C1 | 89
86 | COc1ccccc1CNCCNC(=O)c1ccncc1 | 9
87 | O=C(O)c1cc(N2CCN(c3ccccc3F)CC2)ccc1NC(=O)C1CCC1 | 1
88 | CC1(C)CC[C@H](NC(=O)CCNc2ncccn2)c2ccccc21 | -3
89 | O=C(CNC(=O)c1ccc(Br)cc1)NC1CCCC1O (stereo not drawn) | 5
90 | CC[C@H](C)N(CCC(=O)N1CCOCC1)C(=O)c1cc2n(n1)CCCN(Cc1ccccc1)C2=O | 6
91 | CC(C)C(=O)NCC(=O)Nc1ccc(C(F)(F)F)cc1 | -16
92 | CN(C)c1ccc(-c2nc([C@H]3CCOC3)cs2)cc1 | 9
93 | O=C(Nc1ccc(F)cc1F)[C@@H]1CCCN1C(=O)c1ccco1 | 11
94 | C[C@H](NC(=O)CC1(C)CCCCC1)c1cnn(C)c1 | -5
95 | O=C1CN(CC[C@H]2CCCO2)CCN1c1cccs1 | -10
96 | Cc1ccc(CN2CCC3(CC2)C[C@@H](C(=O)NCc2ccccn2)N(C)C3)s1 | 10
97 | CCC(=O)N(Cc1ccc(-c2ccc(Cl)cc2)o1)[C@H]1CCS(=O)(=O)C1 | 42
98 | O=C1CN(C(=O)Cn2c(-c3ccccc3)cc3ccccc32)c2ccccc2N1 | 11
99 | O=C1CC(C(=O)N2CCOCC2)C(c2ccc3c(c2)OCCO3)O1 (stereo not drawn) | 11
100 | NC[C@H]1CN(CCc2cccc(Cl)c2)C(=O)O1 | -13
101 | COc1cc(CN(C)[C@H]2CCc3nnc(C4CCOCC4)n3CC2)cc(OC)c1 | 1
102 | O=S(=O)(Cc1cc(Cl)cc(Cl)c1)NCCCCn1ccnc1 | -11
103 | O=C(CN1CCN(c2ccccc2F)CC1)c1ccc2c(c1)OCO2 | 7
